The record followed here is the supplement of paper PMC11417369.

The other results are listed elsewhere or left out.

The experiment deals with PF3D7_0420300 AP2 domain 1 (GST-tagged). The experiment in a line: gcPBM binding intensity (ln(normalized median fluorescence intensity)); higher = stronger DNA binding. In outline: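 For binding intensity, the highest Masliner-normalised natural-log median intensity across replicate spots of either probe orientation was taken. Protein bound to the array was stained with Alexa488 anti-GST antibody and scanned at 488 nm. The protein, GST-tagged P. falciparum DNA-binding domains from E. coli at about 25 μg on average, had been applied for 1 h to an Agilent 4 × 180k array of primer-extended double-stranded 36-bp intergenic genomic probes and negative controls.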
For the sequence “TAGTATAATATGAACACACACACACCGACAAAAAAA [CACACA_site5151]”, the “gcPBM binding intensity (ln)” value was 9.99.
Then “AATTGAAAAAGAAATTGTACATTTTATTTTTATTAT [XGTACX_site1973]”, with 9.07.
Then “ATATAATTTATATATTCACACAAGGAATACTTTTAT [CACACA_site5506]”, with 9.18; and “ACTATACAGTTATACACACACATATATCTATAATAT [CACACA_site6283]”, with 9.8.
Then “AATAAAATATATTCCTGTACATATGATTCTTTTTTT [XGTACX_site7980]”, with 9.3; and “TTTACATATTTATATACACACTTTTGCGTGCGTGGT [CACACA_site6647]”, with 9.21.
As for “ATACATATATATATATGTACATATGTATTTTTTATT [XGTACX_site105]”, the “gcPBM binding intensity (ln)” value turned out to be 9.38.
As to “TCAATAAATATACATACATGCATACATACATACATA [TGCATGCA_site197]”, the “gcPBM binding intensity (ln)” value worked out at 9.23.
Regarding “TGTGTTAATATGAATTTAAACATAAATAAATAAATA [CACACA_negctrl_site1589]”, the “gcPBM binding intensity (ln)” value was 8.95.
Then “GAACATTTATTGTGTGTGCACAATTCTTTTTTAACC [GTGCAC_site9697]”, with 9.49.
Then “AATTTTCAATAGTATACACACAATTATATATATATA [CACACA_site1116]”, with 9.42; and “TCTTTTCTCGGAAGGGTGCAAGGAATTAATGAAATA [GTGCAC_site9706]”, with 8.99.
As to “TATATATGTAGACGTTGTACTTTTTTGTAAGTTTAA [XGTACX_site5638]”, the “gcPBM binding intensity (ln)” value is 9.13.
The value for “TTTAAATTTTTATATTGTACTTTATTTATTTATTTA [XGTACX_site869]” was 9.26; that for “TGTGTCAAGTTTAATAAACGCATATAATATATATGA [CACACA_negctrl_site607]” was 8.93; that for “CATGACATATCCTGTAGTACAACGTATATATAAGAT [XGTACX_site2577]” was 9.45.
For the sequence “AAAATAAAATCATAAAGTACAAAAAGAAAATAAAAA [XGTACX_site7376]”, the “gcPBM binding intensity (ln)” value is 9.53.
Then “TTTAATTTTTATATAACACACATATTGTAATTATGT [CACACA_site4566]”, with 9.38.
As for “ATGTTTAATTAAATATGTACTTATTATATTATATGT [XGTACX_site8137]”, the “gcPBM binding intensity (ln)” value was found to be 9.46.
“AGGAATCTACATATATGTACATATATTGATATATTT [XGTACX_site137]”: the “gcPBM binding intensity (ln)” value came to 9.37.
Turning to “ACTAAAAGGCTTAAATGTACATATTATATATATATA [XGTACX_site5897]”, the “gcPBM binding intensity (ln)” value worked out at 9.21.
Then “ATAATTTCTATTTCACAAAAAAAAAAAAAAAAAAAA [CACACA_negctrl_site1012]”, with 8.37.
In the case of “ACATAACTTATATATACACACAATACAAATATATAT [CACACA_site2774]”, the “gcPBM binding intensity (ln)” value was 9.81.
Then “CTTTTTTTTTTGGGGGTGCATGCAAGACATATATTT [GTGCAC_site9660]”, with 9.47.
